{"source": "PubChem BioAssay AID1347165", "about": "(National Center for Advancing Translational Sciences (NCATS), 2019)", "note": "Where “and” joins values, the source holds several entries; their conditions need not be identical. Equal entries are not always repeated. The campaign covered roughly 220,000 compounds. About 5,700 (2.6%) were called active. Inconclusive results, whose numbers are uncertain, are shown with a selection of clear calls. Calls come from the whole dose curve; as a rule, active = well fitted inhibition curve with a large enough effect; inconclusive = small, poorly fitted or top-dose-only effect; inactive = no such curve, though single readings can be large or run the other way. Potencies of inconclusive entries are doubtful fits and often do not repeat. Potency is the fitted concentration of half-maximal effect; tags give direction and shape of the fitted curve."}
{"molecular_target": "Lysine-specific demethylase 5B (Homo sapiens) (UniProt Q9UGL1)", "sequence (Q9UGL1 whole entry, looked up, the tested form may be a part)": "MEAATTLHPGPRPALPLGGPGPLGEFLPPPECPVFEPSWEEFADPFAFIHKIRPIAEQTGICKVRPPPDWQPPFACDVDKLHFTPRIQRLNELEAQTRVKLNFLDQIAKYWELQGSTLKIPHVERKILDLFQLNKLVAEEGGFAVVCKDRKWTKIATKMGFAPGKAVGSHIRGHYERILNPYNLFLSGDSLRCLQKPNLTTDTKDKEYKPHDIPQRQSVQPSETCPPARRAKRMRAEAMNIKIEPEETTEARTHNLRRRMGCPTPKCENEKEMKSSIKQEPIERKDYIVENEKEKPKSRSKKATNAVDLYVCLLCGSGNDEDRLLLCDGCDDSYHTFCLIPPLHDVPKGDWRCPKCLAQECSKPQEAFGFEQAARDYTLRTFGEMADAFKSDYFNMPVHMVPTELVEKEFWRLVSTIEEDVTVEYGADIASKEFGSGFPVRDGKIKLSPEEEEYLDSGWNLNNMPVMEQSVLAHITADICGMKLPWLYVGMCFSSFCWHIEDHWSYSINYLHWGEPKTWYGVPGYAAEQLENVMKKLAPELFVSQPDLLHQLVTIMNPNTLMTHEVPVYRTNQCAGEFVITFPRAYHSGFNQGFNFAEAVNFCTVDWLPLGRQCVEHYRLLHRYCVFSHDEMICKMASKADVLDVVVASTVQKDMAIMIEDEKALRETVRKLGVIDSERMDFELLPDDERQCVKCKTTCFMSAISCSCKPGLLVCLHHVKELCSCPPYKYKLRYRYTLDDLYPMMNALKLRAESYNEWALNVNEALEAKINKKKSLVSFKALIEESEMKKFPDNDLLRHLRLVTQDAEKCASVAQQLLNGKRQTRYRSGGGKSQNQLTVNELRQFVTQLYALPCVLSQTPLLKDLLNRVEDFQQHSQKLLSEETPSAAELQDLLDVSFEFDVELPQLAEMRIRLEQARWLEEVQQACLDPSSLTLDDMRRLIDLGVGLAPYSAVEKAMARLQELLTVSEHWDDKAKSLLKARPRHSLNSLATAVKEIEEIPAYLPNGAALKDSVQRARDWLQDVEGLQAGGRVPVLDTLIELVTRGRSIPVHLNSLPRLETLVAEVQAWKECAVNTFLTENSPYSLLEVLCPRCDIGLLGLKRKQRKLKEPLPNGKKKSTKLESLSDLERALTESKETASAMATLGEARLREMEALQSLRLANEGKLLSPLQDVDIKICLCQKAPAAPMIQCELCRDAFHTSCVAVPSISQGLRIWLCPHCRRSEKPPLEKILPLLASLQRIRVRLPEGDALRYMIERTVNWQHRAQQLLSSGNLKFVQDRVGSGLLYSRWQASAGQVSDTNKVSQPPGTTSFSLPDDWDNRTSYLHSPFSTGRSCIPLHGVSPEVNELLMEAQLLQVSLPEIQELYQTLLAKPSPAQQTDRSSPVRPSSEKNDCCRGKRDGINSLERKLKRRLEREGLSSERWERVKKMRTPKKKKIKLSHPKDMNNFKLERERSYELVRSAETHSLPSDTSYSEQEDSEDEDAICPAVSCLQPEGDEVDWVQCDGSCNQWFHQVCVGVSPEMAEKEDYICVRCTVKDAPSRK", "experiment": "Primary screen for KDM5B Histone Demethylases FDH-coupled qHTS; note: nearly all actives have a fitted effect of over 70% in size", "settings": "FDH-coupled NADH fluorescence (FDH is formaldehyde dehydrogenase); series mostly up to 57.7 µM", "procedure,_shortened": "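Inhibition is measured as reduced NADH fluorescence generation from FDH coupling to formaldehyde release. Truncated KDM5BΔAP at 200 nM final acts on H3K4me3 peptide (12.5 µM in substrate mix) in pH 7.5 HEPES buffer with Tween-20, 30 min, room temperature.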"}
{"smiles": "Cc1ccccc1-c1nccn2c(C3CN(Cc4ccc(O)cc4)C3)ncc12", "Potency": "inconclusive: 35.5 µM [inhibitor, partial curve, poor fit]"}
{"smiles": "O=C(N[C@H]1CO[C@H]2[C@@H]1OC[C@@H]2Nc1nccc(-c2ccc(-c3ccccc3)cc2)n1)C1CC1", "Potency": "inactive"}
{"smiles": "Cn1ccc2c(C(=O)NCc3cnccn3)nc(-c3cccc(N4CCOCC4)c3)cc21", "Potency": "inactive"}
{"smiles": "COCCN(C)C[C@@H]1CN(C(=O)Cn2ncc3ccccc3c2=O)C[C@@H]1CO", "Potency": "inactive"}
{"smiles": "N#Cc1ccc2nc([C@H]3CCN(Cc4ccccc4)C3)[nH]c2c1", "Potency": "inconclusive: 31.6 µM [inhibitor, partial curve]"}
{"smiles": "COc1cccc(C(=O)NCC(c2ccc(N(C)C)cc2)N2CCc3ccccc32)c1", "note": "(stereo not given)", "Potency": "inconclusive: 25.1 µM [inhibitor, single point]"}
{"smiles": "COCCCNC(=O)N1C[C@@H]2CCCN3CCC[C@@H]([C@H]23)[C@H]1CCCC(=O)NCC1CC1", "Potency": "inconclusive: 28.2 µM [inhibitor, single point]"}
{"smiles": "CC(C)c1cc(C(=O)NC2CCN(c3ncccc3C#N)CC2)n(C)n1", "Potency": "active: 22.4 µM"}
{"smiles": "c1ccc2c(c1)CCN2CC1CCNCC1", "Potency": "inactive"}
{"smiles": "CN1c2cc(C(=O)N3CCC(C(N)=O)(N4CCCCC4)CC3)ccc2C(=O)N2CCCC21", "note": "(stereo not given)", "Potency": "inconclusive: 31.6 µM [inhibitor, partial curve, poor fit]"}
{"smiles": "COc1ccc(CN2C[C@H]3CN(Cc4ccc([N+](=O)[O-])cc4)CCN3C2=O)cc1", "Potency": "inconclusive: 35.5 µM [inhibitor, single point]"}
{"smiles": "CCOC(=O)c1sc(NNC(=O)c2ccc(C)cc2)nc1C", "Potency": "inconclusive: 20 µM [inhibitor, single point]"}
{"smiles": "O=C(/C=C/C=C/c1ccco1)c1ccc(N2CCOCC2)cc1", "Potency": "inconclusive: 22.4 µM [inhibitor, partial curve, poor fit]"}
{"smiles": "COc1ccc(-c2nc(C(C)C)nc3c2CN(C(=O)c2ccc4c(c2)OCO4)CC3)cc1", "Potency": "inconclusive: 3.55 µM [inhibitor, partial curve, poor fit]"}
{"smiles": "CC1CN(C(=O)c2cc(-c3ccco3)[nH]n2)CCO1", "note": "(stereo not given)", "Potency": "inconclusive: 39.8 µM [inhibitor, single point]"}
{"smiles": "O=C(NCC(F)(F)F)c1cc(C2CC2)nc2c1c(C1CCCN1)nn2-c1ccccc1", "note": "(stereo not given)", "Potency": "inconclusive: 79.4 µM [inhibitor, single point]"}
{"smiles": "Cc1ccc(NC(=O)Cn2cc(S(=O)(=O)N3CCCC3)c(S(=O)(=O)N3CCCC3)c2)cc1F", "Potency": "inconclusive: 2.51 µM [inhibitor, full curve, poor fit]"}
{"smiles": "CCOc1cc(/C=C(/C#N)C(=O)Nc2ccccc2C(=O)O)ccc1OC", "Potency": "inactive"}
{"smiles": "O=C(/C=C/c1cccc(Cl)c1Cl)c1ccccc1OC(F)F", "Potency": "inconclusive: 39.8 µM [inhibitor, partial curve, poor fit]"}
{"smiles": "CC(=O)c1cccc(Nc2nc(-c3cccc(C)c3)nc3ccccc23)c1", "Potency": "inconclusive: 31.6 µM [inhibitor, partial curve, poor fit] and inconclusive: 25.1 µM [inhibitor, single point]"}
{"smiles": "CC(=O)Nc1ccc(CC(=O)N2CCc3c(nc4cc(-c5ccccc5Cl)[nH]n4c3=O)C2)cc1", "Potency": "active: 25.1 µM"}
{"smiles": "COc1ccccc1-c1cc2nc(C)c(CCC(=O)O)c(C)n2n1", "Potency": "inconclusive: 6.31 µM [inhibitor, partial curve, poor fit]"}
{"smiles": "CCC(=O)N1CCc2cc(S(=O)(=O)NCCC(=O)Nc3cc(C)ccc3OC)ccc21", "Potency": "inconclusive: 25.1 µM [inhibitor, partial curve, poor fit]"}
{"smiles": "Cc1ccc2nc(-c3ccc(O)cc3)c(Nc3ccc(Cl)cc3)n2c1", "Potency": "inconclusive: 31.6 µM [inhibitor, partial curve, poor fit]"}
{"smiles": "c1ccc(CNc2cc3c(cn2)CN(Cc2cccnc2)CCN3)cc1", "Potency": "inconclusive: 39.8 µM [inhibitor, partial curve, poor fit]"}
{"smiles": "COc1cc(NC(=O)c2cc3c(s2)-c2ccccc2OC3)cc(OC)c1OC", "Potency": "inconclusive: 22.4 µM [inhibitor, single point]"}
{"smiles": "CCCCn1nc(C(=O)Nc2ccc3nc(SC)sc3c2)c2ccccc2c1=O", "Potency": "inactive"}
{"smiles": "COc1ccc(-c2ccc3ncc(Nc4ccc(F)c(Cl)c4)n3n2)cn1", "Potency": "inactive"}
{"smiles": "CCN1c2ccccc2-c2nc(SCC(=O)NCc3ccccc3)ncc2S1(=O)=O", "Potency": "inconclusive: 2.24 µM [inhibitor, full curve, poor fit]"}
{"smiles": "Oc1ccc(C2(c3cccc(Cl)c3)CCCCC2)cc1", "Potency": "inactive"}
{"smiles": "COC(=O)CCNC(=O)NC(CCC(C)C)c1c(-n2cccc2)sc2c1CCN(C)C2", "note": "(stereo not given)", "Potency": "inconclusive: 28.2 µM [inhibitor, single point]"}
{"smiles": "O=C1Nc2ccc(-c3ccc(Cl)cc3)cc2C(=O)N2CCN(C(=O)c3cccc(F)c3)C[C@H]12", "Potency": "inconclusive: 31.6 µM [inhibitor, single point]"}
{"smiles": "CC(=O)N1N=C(c2ccc(Br)cc2)OC12CCCC2", "Potency": "inconclusive: 28.2 µM [inhibitor, partial curve, poor fit]"}
{"smiles": "CCSc1oc(-c2ccco2)nc1S(=O)(=O)c1ccc(Br)cc1", "Potency": "inconclusive: 35.5 µM [inhibitor, single point]"}
{"smiles": "COc1ccc2[nH]c3c(c2c1)CCNC31CCN(C(=O)c2ccnn2C)CC1", "Potency": "inconclusive: 22.4 µM [inhibitor, partial curve, poor fit]"}
{"smiles": "CC(Sc1nc2cc(Cl)ccc2s1)C(=O)NC1CCCC1", "note": "(stereo not given)", "Potency": "inactive"}
{"smiles": "Oc1cc(-c2cccc(Cl)c2)cc2c1OCCN(c1cc(C3CC3)ncn1)C2", "Potency": "inconclusive: 7.08 µM [inhibitor, partial curve, poor fit]"}
{"smiles": "CCS(=O)(=O)N1CCc2cc(C(=O)Nc3ccc(C(=O)OC)cc3)ccc21", "Potency": "inconclusive: 31.6 µM [inhibitor, single point]"}
{"smiles": "CCOc1ccc(CNC(=O)c2cnc3sc(N4CCOCC4)nn3c2=O)cc1", "Potency": "inactive"}
{"smiles": "Cc1ccc(CN2CCc3nc(Nc4ccc5c(c4)OCCO5)ncc3C2)cc1", "Potency": "inactive"}
